Source: the RNAGym collection of RNA variant scans (doi:10.1093/nar/gkz1192)
The source gives no read counts; variants with many changes may rest on few reads.

B1: CPEB3 Ribozyme (parent)
chain: UAACAGGGGGCCACAGCAGAAGCGUUCACGUCGCAGCCCCUGUCAGAUUCUGGUGAAUCUGCGAAUUCUGCUGUAUAUCUC

Variants of: B1
Experiment: self-cleavage, relative activity (ratio to wild type); higher = more cleavage; in vitro, sequencing
In short: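 Relative activity was defined as the cleaved/total read fraction for a variant divided by the same fraction for the unmutated ribozyme. CPEB3 self-cleaving ribozyme libraries were made by rounds of error-prone PCR, barcoded, and transcribed in vitro with T7 RNA polymerase for 5 hours at 37°C, and cleavage ran through transcription plus a 15 min DNase I step before EDTA. Illumina sequencing of template-switched reverse transcripts gave the reads, and DNA sequencing mapped the barcodes. Averages come from three batches, using variants with at least 5 reads.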
Work on UAACAGGGGGCCACAUCUGAAGCGUUCACGACGCAGCCCCUGUCAGAUUCUGGAGAAUCUGCGAAUUCUGCUGUAUAUCUC [G16U A18U U31A U54A] yielded a self-cleavage of 0.11.
UAACAGGGGGCCACAUCAGUAGCGUUCGCGCCGCAGCCCCUGUCAGAUUCUGGUGAAUCUGCGAAUUCUGCAGUAUACCUC [G16U A20U A28G U31C U72A U78C] gave a self-cleavage of 0.05.
For UAACAGGGGGCCACAUCAGUAGCGUUCACGUCGCAGCCCCUGUCAGAUUCUGGUGUAUCCGCGAUUUCAGCUGUAUAUCAC [G16U A20U A56U U60C A65U U69A U80A], the self-cleavage was 0.02.
With UAACAGGGGGCCACAUCAGAGGCGUUCACGUCGCAGCACCCGUCAGAUUCUGGUGAGUCUGCGAAUUCUGCUGUAUAUCUC [G16U A21G C38A U41C A57G] the self-cleavage was 0.05.
Work on UAACAGGGGGCCACAUCAGAGGCGUUCACCUCGCAGCCCCUGUCAGAUUCUGGUGAAUCUGCGAAUUCUGCUGUAUAUCUC [G16U A21G G30C] yielded a self-cleavage of 0.07.
In the case of UAACAGGGGGCCACAUCAGAGGCGUUCACGUCGCAGCCCCAGUCAUAUUCUGGUGAAUCUGCGAAUUCUACUGUAUAUCAC [G16U A21G U41A G46U G70A U80A], the self-cleavage is reported as 0.07.
For UAACAGGGGGCCACAUCAGAAGCGUUCACGUCGCCGCCCCUGUCAGAUCCUGGUGAGUCUGCGUAUUCUGCUGUAUAUCUC [G16U A35C U49C A57G A64U], the self-cleavage was 0.1.
With UAACAGGGGGCCACAUCAGAAGCGUUCACGUCGCGGCCCCUGCCAGAUUCUGGUGAAUCUGCGAAUUCAGCUGUAUAUCUC [G16U A35G U43C U69A] the self-cleavage was 0.4.
Work on UAACAGGGGGCCACAUCAGAAGCGUUCACGUCGCGGCCCCUGUCAGAUCCUGGUGAAUCUGCGAAUUCAGCUGUAUAUCUC [G16U A35G U49C U69A] yielded a self-cleavage of 0.18.
With UAACAGGGGGCCACAUCAGAAGCGUUCACGUCGCUGCCCCUGUCAGAUUCUGGUGAGUCUGCGUAUUCUGCUGUAUAUCUC [G16U A35U A57G A64U] the self-cleavage was 0.12.
In the case of UAACAGGGGGCCACAUCAGAAGCGUUCACGUCGCUGACCCAGUCAGAUUCUGGUGAAUCUGCGAACUCUGCUGUAUAUCUC [G16U A35U C37A U41A U66C], the self-cleavage is reported as 0.18.
UAACAGGGGGCCACAUCAGAAGCGUUCACGUCGCAGCCCCUGUCGGAUUCUGGUGAAUCUGCGAAUUCUGCUGUGUAUCUC [G16U A45G A75G] gave a self-cleavage of 0.24.
Work on UAACAGGGGGCCACAUCAGAAGCGUUCACGUCGCAGCCCCUGUCAGAUUCUGGUGUAUCUGCGAAUUCGGCAGUACAUCCC [G16U A56U U69G U72A U76C U80C] yielded a self-cleavage of 0.06.
Work on UAACAGGGGGCCACAUCAGAAGCGUUCACGUCGCAGCCCCUGUCAGAUUCUGGUGAAUCUGCGUAUUCUGCUGUAAAUCCC [G16U A64U U76A U80C] yielded a self-cleavage of 0.2.
For UAACAGGGGGCCACAUCAGAAGAGUACACGUCGCAGCCCCUGUCCGAUUCUGGUGAAUCUGCGAAUUCUGCAGUACAUCUC [G16U C23A U26A A45C U72A U76C], the self-cleavage was 0.11.
In the case of UAACAGGGGGCCACAUCAGAAGAGUGCACGUCGCAGCCCCUGUCAGAUUCUGGUGAAUCUGCGAAUUCUGCAGUACAUCUC [G16U C23A U26G U72A U76C], the self-cleavage is reported as 0.05.
Work on UAACAGGGGGCCACAUCAGAAGAGUUCACGUCGCAGCCCCUGUCAGACUCUGGUGAAUCUGCGGAUUCCGCUGUAUAUCUC [G16U C23A U48C A64G U69C] yielded a self-cleavage of 0.06.
UAACAGGGGGCCACAUCAGAAGCGUUAACGUCGCAGCCCCAGUCAGAUUCCGGUGAAUCUGCGAAUUCUGCCGUAUAUCUC [G16U C27A U41A U51C U72C] showed a self-cleavage of 0.11.
In the case of UAACAGGGGGCCACAUCAGAAGCGUUCAUGUCGCAGCCCCUGUCAGAGUCUGGUGAAUCCGCGAAUUCUGCUGUAUAUCCC [G16U C29U U48G U60C U80C], the self-cleavage is reported as 0.29.
UAACAGGGGGCCACAUCAGAAGCGUUCACGUUACAGCCCCUGUCAGAUUCUGGUGAAUCUGCGAAUCCUGCUGUAUAUCUC [G16U C32U G33A U67C] showed a self-cleavage of 0.09.
Work on UAACAGGGGGCCACAUCAGAAGCGUUCACGUCGUAGCCCCUGCCAGAUUCUGGUGUACCUGCGAAUCCUGCUGUAUAUCUC [G16U C34U U43C A56U U58C U67C] yielded a self-cleavage of 0.07.
Work on UAACAGGGGGCCACAUCAGAAGCGUUCACGUCGCAGCCCCUGUCAGAUUCUGGUGAAUCUGUGAAUUCUGCUGUAUAACUC [G16U C62U U78A] yielded a self-cleavage of 0.06.
Work on UAACAGGGGGCCACAUCAGAAGCGCUCACGCCGCAGCCCCUGUCAGAUUCUGGUGAAUCUGCGAACUCUGCAGUAUAUCCC [G16U U25C U31C U66C U72A U80C] yielded a self-cleavage of 0.05.
Variant UAACAGGGGGCCACAUCAGAAGCGUACACGUCGCAGCCCCUGUCAGGUUCUGGUGAAUCUGCGUAUUCUGCUGUAUAUCCC [G16U U26A A47G A64U U80C] has a self-cleavage of 0.29.
UAACAGGGGGCCACAUCAGAAGCGUCCACGUCGCAGCCCCUGUCAGAUUCUGGUGAAUCUGCGAAAUCUGCUGUAUAUCUC [G16U U26C U66A] gave a self-cleavage of 0.07.
UAACAGGGGGCCACAUCAGAAGCGUUCACGCCGCGGCCCCUGUCAGAUUCUGGUGAAUCUGCGAAUCCUGCUGUAUGCCUC [G16U U31C A35G U67C A77G U78C] gave a self-cleavage of 0.11.
Work on UAACAGGGGGCCACAUCAGAAGCGUUCACGCCGCAGCGCCUGUCAGAUUCUGGUGAAUCUGCGAAUUCUGCUGUAUAUCUC [G16U U31C C38G] yielded a self-cleavage of 0.19.
For UAACAGGGGGCCACAUCAGAAGCGUUCACGCCGCAGCCCCCGUCAGAUUCUGGUGAGUCUGCGAAUUCUGCUGUAUACCUC [G16U U31C U41C A57G U78C], the self-cleavage was 0.13.
Work on UAACAGGGGGCCACAUCAGAAGCGUUCACGUCGCAGCCCCAGUCAGAUCCUGGUGUAUCUGCGAAUUCUGCUGUAUAUCCC [G16U U41A U49C A56U U80C] yielded a self-cleavage of 0.17.
With UAACAGGGGGCCACAUCAGAAGCGUUCACGUCGCAGCCCCAGUCAGAUUCUGGUGAAACUGCGAAUUCCGCUGUAUAUCUC [G16U U41A U58A U69C] the self-cleavage was 0.08.
Work on UAACAGGGGGCCACAUCAGAAGCGUUCACGUCGCAGCCCCCGUCAGAUUCUGGUGAAUCUGCGAAUUCUGCUGUAUGUCUC [G16U U41C A77G] yielded a self-cleavage of 0.36.
UAACAGGGGGCCACAUCAGAAGCGUUCACGUCGCAGCCCCUGACAGAUUCUGGUGAAUCUGCGGAUUCUGCUGUAUAUCUC [G16U U43A A64G] showed a self-cleavage of 0.13.
UAACAGGGGGCCACAUCAGAAGCGUUCACGUCGCAGCCCCUGCCAGAUUCUGGUGAACCUGCGAAUUCUGCCGUAUAUCUC [G16U U43C U58C U72C] gave a self-cleavage of 0.14.
Variant UAACAGGGGGCCACAUCAGAAGCGUUCACGUCGCAGCCCCUGUCAGAUCCUGGUGAAUCCGCGAAUUCAGCUGUAUAUCUC [G16U U49C U60C U69A] has a self-cleavage of 0.06.
